{"source": "PubChem BioAssay AID493005", "about": "(National Center for Advancing Translational Sciences (NCATS), 2010)", "note": "In all, about 340,000 compounds went through this assay and fewer than 10 were called active. Inconclusive results, whose numbers are uncertain, are shown with a selection of clear calls. Calls come from the whole dose curve; as a rule, active = well fitted inhibition curve with a large enough effect in the main read-out, with a control signal flat (not every such curve was filed as active); inconclusive = small, poorly fitted or top-dose-only effect, or effect the other way, or a change in a side signal; inactive = no such curve, though single readings can be large or run the other way. Where the call is inconclusive, the potency comes from a doubtful curve fit. “Side channel” marks fits to a control or component signal instead of the main read-out. Potency is the fitted concentration of half-maximal effect; tags give direction and shape of the fitted curve or compound fluorescence and quenching."}
{"target": "Tumor susceptibility gene 101 protein (Homo sapiens) (UniProt Q99816)", "sequence (Q99816 whole entry, looked up)": "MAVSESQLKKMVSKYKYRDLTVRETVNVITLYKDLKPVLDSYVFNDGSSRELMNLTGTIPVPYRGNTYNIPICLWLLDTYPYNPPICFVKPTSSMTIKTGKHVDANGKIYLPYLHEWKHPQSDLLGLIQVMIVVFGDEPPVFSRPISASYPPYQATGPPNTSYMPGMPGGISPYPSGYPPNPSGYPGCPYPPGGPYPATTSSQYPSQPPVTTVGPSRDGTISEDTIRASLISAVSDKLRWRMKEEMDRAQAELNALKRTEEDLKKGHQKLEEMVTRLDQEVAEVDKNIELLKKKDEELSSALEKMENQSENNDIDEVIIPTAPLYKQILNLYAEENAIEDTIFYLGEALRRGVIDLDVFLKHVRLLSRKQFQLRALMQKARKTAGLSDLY", "test": "qHTS Assay for Iinhibitors of HIV-1 Budding by Blocking the Interaction of PTAP/TSG101; for activity change, negative = inhibition: % of control where 0% means no effect", "conditions": "Fluorescence polarization, FITC-PTAP peptide / Tsg101 binding; series mostly up to 115 µM; activity change, negative = inhibition: at the top concentration", "excerpt": "NIH Molecular Libraries Probe Production Network [MLPCN] NIH Chemical Genomics Center [NCGC] MLPCN Grant: 1 R03 MH087464-01A1 PI Name: Dr. Eric Freed, NCI NCGC Assay Overview: Stages of the HIV-1 replication cycle, specifically virus assembly and release, provide underexploited targets for the development of novel antiviral inhibitors. The late stages of HIV-1 replication are mediated by the Gag precursor protein, Pr55Gag. Expression of Pr55Gag is both necessary and sufficient for the production of virus-like particles from Gag-expressing cells. The Gag protein hijacks key host proteins involved in endocytic machinery of the host cell to promote endosomal processing and viral budding. The budding process requires a direct interaction between a […] (PTAP) motif in the p6 domain of Gag and the cellular endosomal sorting protein known as Tsg101. In this way, the Gag PTAP motif promotes the host cells to recruit viral particles to the plasma membrane where the new viral particles are released, effectively turning the host cells into viral factories. A fluorescence anisotropy assay has been developed to quantitatively measure the PTAP-Tsg101 interaction which can be used to screen for inhibitors of this interaction.\nNCGC Assay Protocol Summary: Two uL of the Tsg101 binding domain in buffer (10 mM HEPES pH 7.5; 0.15 M NaCl, 0.01% Tween 20; 3 mM EDTA;0.1 mM TCEP) was dispensed into Greiner black MB 1536-well plates (final concentration 10 uM). Then, 23 nL of compounds or DMSO were delivered to each well using a pin tool. Finally, 2 uL of a FITC-labeled peptide containing the PTAP motif (1) in the same buffer was dispensed (50 nM final concentration) and the binding was allowed to proceed for 20 min. at r.t. Fluorescent polarization was determined using FITC excitation and polarized emission filters on a Perkin Elmer Viewlux. Keywords: Tsg101, PTAP, Gag, HIV, fluorescent polarization, MLSMR, MLPCN, NIH Roadmap, qHTS, NCGC"}
{"smiles": "CCn1c(O)c(/C=N/NC(=O)c2ccncc2)c(=O)n(CC)c1=S", "Potency": "inconclusive: 50.1 µM [fluorescent, partial curve, poor fit]"}
{"smiles": "CCN(CC)c1ccc(/C=C2\\C(=O)NC(=S)N(C)C2=O)o1", "Potency": "inconclusive: 50.1 µM [fluorescent, side channel, partial curve, poor fit]"}
{"smiles": "COc1ccc(OC)c(N=Cc2c(O)n(Cc3ccccc3)c(=S)[nH]c2=O)c1", "Potency": "inconclusive: 39.8 µM [fluorescent, side channel, partial curve, poor fit]"}
{"smiles": "Nc1ccccc1C(=O)OCC(=O)Nc1ccc(Br)cc1F", "activity change, negative = inhibition": "inactive: -0.0811%"}
{"smiles": "CCOC(=O)c1c(/N=C/C2C(=O)NC(=O)NC2=O)sc2c1CCC2", "Potency": "inconclusive: 44.7 µM [fluorescent, side channel, partial curve]"}
{"smiles": "O=c1oc2ccccc2c(O)c1[C@H]1c2ccc(O)cc2Oc2c1c(=O)oc1ccccc21", "activity change, negative = inhibition": "inactive: -3.68%"}
{"smiles": "COc1cc2nc(CN3CC=C(c4ccccc4)CC3)[nH]c(=O)c2cc1OC", "activity change, negative = inhibition": "inactive: 0.0189%"}
{"smiles": "CN1CCC2(CC1)C(C#N)=C(N)NC(S)=C2C#N", "Potency": "inconclusive: 50.1 µM [fluorescent, partial curve, poor fit]"}
{"smiles": "CC1CCC(C(C)C)C(OC(=O)COC(=O)c2ccccc2N)C1", "note": "(configuration not stated)", "Potency": "inconclusive: 39.8 µM [quencher, side channel, partial curve, poor fit]"}
{"smiles": "CCn1nc(-c2ccccc2)nc2c(=O)n(C)c(=O)nc1-2", "Potency": "inconclusive: 50.1 µM [fluorescent, side channel, partial curve, poor fit]"}
{"smiles": "COc1ccc(-n2c(=O)[nH]c3ccccc3c2=O)cc1", "activity change, negative = inhibition": "inactive: -0.192%"}
{"smiles": "N#CCN1CCN(c2ccc(C(F)(F)F)cc2)CC1", "Potency": "inconclusive: 100 µM [falling, single point]"}
{"smiles": "CN1/C(=C\\C=Nc2ccccc2)C(C)(C)c2ccccc21", "activity change, negative = inhibition": "inactive: -0.0153%"}
{"smiles": "CCn1cc(C=C2C(=O)NC(=O)NC2=O)c2ccccc21", "Potency": "inconclusive: 70.8 µM [fluorescent, side channel, partial curve, poor fit]"}
{"smiles": "CCOC(=O)CC(SP1(=S)OCC2(CCCCC2)CO1)C(=O)OCC", "note": "(configuration not stated)", "Potency": "inconclusive: 89.1 µM [quencher, side channel, single point]"}
{"smiles": "CCN(CC)c1ccc(N=Cc2c(O)n(-c3ccc(OC)cc3)c(=O)[nH]c2=O)cc1", "Potency": "inconclusive: 79.4 µM [fluorescent, side channel, partial curve, poor fit]"}
{"smiles": "COCCCNC(=O)Cn1cc(/C=C2\\C(=O)NC(=O)N(c3ccccc3F)C2=O)c2ccccc21", "Potency": "inconclusive: 89.1 µM [fluorescent, side channel, single point]"}
{"smiles": "O=Cc1c(C(=O)O)n(Cc2ccc(Cl)cc2)c2ccccc12", "Potency": "inconclusive: 56.2 µM [fluorescent, side channel, partial curve, poor fit]"}
{"smiles": "COC1C(C)OC(OC2CC(C)(O)Cc3cc4c(c(O)c32)C(=O)c2c(O)cc3c(c2C4=O)OC2OC3(C)C(O)C(N(C)C)C2O)C(OC)C1(C)OC", "note": "(configuration not stated)", "Potency": "inconclusive: 39.8 µM [fluorescent, side channel, partial curve]"}
{"smiles": "COc1ccc(CNCCc2c(C)[nH]c3ccc(OC(F)(F)F)cc23)c(OC)c1", "activity change, negative = inhibition": "inactive: -0.919%"}
{"smiles": "CCOC(=O)[C@]1(C#N)[C@@H]2C=CC(C(C)=O)=CN2[C@@H](C(N)=O)[C@@H]1c1ccsc1", "Potency": "inconclusive: 56.2 µM [fluorescent, side channel, partial curve, poor fit]"}
{"smiles": "CCc1nccc2c1[nH]c1ccccc12", "activity change, negative = inhibition": "inactive: 0.381%"}
{"smiles": "CC(C)C[C@H]1C(=O)N2CCC[C@H]2[C@]2(O)O[C@](NC(=O)[C@@H]3C=C4c5cccc6[nH]cc(c56)C[C@H]4N(C)C3)(C(C)C)C(=O)N12", "Potency": "inconclusive: 50.1 µM [fluorescent, partial curve, poor fit]"}
{"smiles": "COc1ccc(-n2c(O)c(/C=C/C=Nc3ccccc3)c(=O)[nH]c2=O)cc1", "Potency": "inconclusive: 56.2 µM [fluorescent, side channel, partial curve, poor fit]"}
{"smiles": "CC(C)(C)OC(=O)N(CCc1ccccc1)Cc1ccc(OCc2cccc(NC(=O)c3ccccc3)c2)cc1", "Potency": "inconclusive: 89.1 µM [fluorescent, side channel, partial curve, poor fit]"}
{"smiles": "O=C1NC(=O)C(=Cc2ccc(N3CCOCC3)o2)C(=O)N1", "Potency": "inconclusive: 56.2 µM [fluorescent, side channel, partial curve, poor fit]"}
{"smiles": "CN1CC=C2C(C#N)=C(N)C(C#N)(C#N)C(c3ccncc3)C2C1", "note": "(configuration not stated)", "Potency": "inconclusive: 50.1 µM [fluorescent, side channel, partial curve, poor fit]"}
{"smiles": "COC(=O)C1=C(c2cc3ccccc3s2)C[C@@H]2CC[C@H]1N2C(=O)NCc1ccc(F)cc1", "Potency": "inconclusive: 79.4 µM [quencher, side channel, partial curve, poor fit]"}
{"smiles": "CC(C)(O)[C@H]1O[C@H]2CC[C@@]3(C)[C@@](O)(CC[C@H]4Cc5c([nH]c6ccccc56)[C@@]43C)C2=CC1=O", "Potency": "inconclusive: 25.1 µM [fluorescent, side channel, full curve, poor fit]"}
{"smiles": "Cc1ccccc1N1C(=O)NC(=O)/C(=C/c2ccc(N3CCOCC3)o2)C1=O", "Potency": "inconclusive: 56.2 µM [fluorescent, partial curve, poor fit]"}
{"smiles": "N#C/C(=C\\c1ccc([N+](=O)[O-])cc1)c1nc(C2CC2)cs1", "Potency": "inconclusive: 89.1 µM [fluorescent, side channel, single point]"}
{"smiles": "CCOC(=O)c1cc(CC)sc1/N=C/c1c(O)[nH]c(=S)[nH]c1=O", "Potency": "inconclusive: 50.1 µM [fluorescent, side channel, partial curve, poor fit]"}
{"smiles": "Cc1cccc(N2C(=O)/C(=C/c3ccc(N4CCN(C)CC4)o3)C(=O)NC2=S)c1C", "Potency": "inconclusive: 89.1 µM [fluorescent, partial curve]"}
{"smiles": "CCCCn1c(O)c(C(=O)/C=C/c2c[nH]c3ccccc23)c(=O)[nH]c1=O", "Potency": "inconclusive: 56.2 µM [fluorescent, side channel, partial curve, poor fit]"}
{"smiles": "COc1cc2cc(C(=O)N3CC(COS(C)(=O)=O)c4ccc(O)cc43)[nH]c2c(OC)c1OC", "note": "(configuration not stated)", "activity change, negative = inhibition": "inactive: -2.95%"}
{"smiles": "O=C(/C=C/c1c[nH]c2ccccc12)c1c(O)n(CCc2ccccc2)c(=O)[nH]c1=O", "Potency": "inconclusive: 50.1 µM [fluorescent, side channel, partial curve, poor fit]"}
{"smiles": "CCOC(=O)C1(CCc2ccccc2)CCN(Cc2ccc3c(c2)OCCO3)CC1", "activity change, negative = inhibition": "inactive: -3.96%"}
{"smiles": "Cn1cc(C=C(C#N)C#N)c2ccccc21", "Potency": "inconclusive: 56.2 µM [fluorescent, side channel, partial curve, poor fit]"}
{"smiles": "CN1CCCC(C(O)(c2ccccc2)c2ccccc2)C1", "note": "(configuration not stated)", "activity change, negative = inhibition": "inactive: -0.929%"}
{"smiles": "C[C@H]1CC[C@@]2(C)[C@@H](CC[C@@H]3[C@@H]2CC[C@]2(C)[C@@H](O)CC[C@@H]32)C1", "Potency": "inconclusive: 56.2 µM [quencher, side channel, partial curve, poor fit]"}
{"smiles": "COC(=O)C1=C(c2ccccc2OCc2ccccc2)C[C@@H]2CC[C@H]1N2C(=O)NCCOc1ccc(OC)cc1", "activity change, negative = inhibition": "inactive: -2.43%"}
{"smiles": "CCc1ccccc1NC(=O)CNCc1ccccc1", "Potency": "inconclusive: 56.2 µM [fluorescent, side channel, partial curve, poor fit]"}
{"smiles": "Cc1cc(C)cc(-n2c(O)c(C=Nc3ccc(N4CCOCC4)cc3)c(=O)[nH]c2=S)c1", "Potency": "inconclusive: 79.4 µM [fluorescent, side channel, partial curve]"}
{"smiles": "CN1/C(=C\\C=C2C(=O)NC(=O)NC2=O)C(C)(C)c2ccccc21", "Potency": "inconclusive: 56.2 µM [fluorescent, side channel, partial curve, poor fit]"}
{"smiles": "COc1cc2c(cc1OC)-c1c3c(cc4c1[C@@H](C2)N(C)CC4)OCO3", "activity change, negative = inhibition": "inactive: -4.34%"}
{"smiles": "O=C1NC(=O)N(c2ccc3c(c2)OCO3)C(=O)/C1=C\\c1ccc(N2CCCCC2)o1", "Potency": "inconclusive: 56.2 µM [fluorescent, side channel, partial curve, poor fit]"}
{"smiles": "CC(C)C[C@H]1C(=O)N2CCCC2[C@]2(O)O[C@](NC(=O)[C@@H]3C=C4c5cccc6[nH]cc(c56)CC4N(C)C3)(C(C)C)C(=O)N12", "note": "(some centres not stated)", "Potency": "inconclusive: 56.2 µM [fluorescent, side channel, partial curve, poor fit]"}
{"smiles": "CCN(CC)c1ccc(N=Cc2c(O)n(Cc3ccco3)c(=O)[nH]c2=O)cc1", "Potency": "inconclusive: 50.1 µM [fluorescent, partial curve, poor fit]"}
{"smiles": "Cc1[nH]c2ccc(OC(F)(F)F)cc2c1CCNCc1ccc(Cl)cc1", "activity change, negative = inhibition": "inactive: -3%"}
{"smiles": "CCN(CC)c1ccc(N=Cc2c(O)n(CCc3ccc(OC)c(OC)c3)c(=O)[nH]c2=O)cc1", "Potency": "inconclusive: 50.1 µM [fluorescent, side channel, partial curve, poor fit]"}
{"smiles": "Cc1ccc(/C=C2/Sc3ccc(C(=O)N4CCC5(CC4)OCCO5)cc3NC2=O)cc1", "Potency": "inconclusive: 50.1 µM [fluorescent, side channel, partial curve, poor fit]"}
{"smiles": "CCS(=O)(=O)N1N=C(c2cccc(NS(C)(=O)=O)c2)CC1c1ccccc1", "note": "(configuration not stated)", "Potency": "inconclusive: 56.2 µM [fluorescent, side channel, partial curve, poor fit]"}
